Reference: patent publication US5633345A, “Cyclic peptides” (priority 1992, dated 1997)
Converted amounts (≈) assume the structure as drawn. Part of at least one peptide drawing is inferred or uncertain, most often the ends. Starred links: 1 amine or outer side, 2 acyl side, 3 side chain; linkers in the order of their positions; H or OH if unused. Non-standard residues stand in square brackets, D forms with d. Residues, ends and D or L forms follow the SMILES beside them. X1 = CC[C@@H](C)[C@@H](O[*:1])C(=O)[*:2]; NMeVal(β-OH) = CN[C@H](C(=O)O)C(C)(C)O; NMeaIle = CC[C@@H](C)[C@H](NC)C(=O)O; X5 = CN([C@@H](CCCO)C(=O)[*:2])[*:1]; NMeF = CN[C@@H](Cc1ccccc1)C(=O)O; aIle = CC[C@@H](C)[C@H](N)C(=O)O; NMeV = CN[C@H](C(=O)O)C(C)C; Sar = CNCC(=O)O

Legend:
Assay in all cases: Antifungal activity, MIC by agar dilution method
Conditions in all cases: 30° C. for 2 days
C. albicans TIMM 0171 = assay type: cell-based, Candida albicans
Method: (§1) The minimum inhibitory concentration (MIC) values were determined after incubation at 30° C. for 2 days.

C. kefyr TIMM 0301 = assay type: cell-based
Method: as §1

[1] = test system: Cryptococcus neoformans TIMM 0354; assay type: cell-based
Method: as §1

C. grabrata TIMM 1062 = assay type: cell-based
Method: as §1

[2] = test system: Candida albicans TIMM 0136; assay type: cell-based
Method: as §1

SMILES | MIC (C. albicans TIMM 0171; Sabouraud-dextrose agar medium) [µg/mL] | MIC (C. kefyr TIMM 0301; Sabouraud-dextrose agar medium) [µg/mL] | MIC ([1]; Sabouraud-dextrose agar medium) [µg/mL] | MIC (C. grabrata TIMM 1062; Sabouraud-dextrose agar medium) [µg/mL] | MIC ([2]; Sabouraud-dextrose agar medium) [µg/mL] | MIC (C. albicans TIMM 0171; Casitone agar medium) [µg/mL] | MIC (C. kefyr TIMM 0301; Casitone agar medium) [µg/mL] | MIC ([1]; Casitone agar medium) [µg/mL] | MIC (C. grabrata TIMM 1062; Casitone agar medium) [µg/mL] | MIC ([2]; Casitone agar medium) [µg/mL]
CC[C@@H](C)[C@@H]1NC(=O)[C@@H]2CCCN2C(=O)[C@H](Cc2ccccc2)N(C)C(=O)[C@H](Cc2ccccc2)NC(=O)[C@H](C(C)C)N(C)C(=O)[C@@H]([C@H](C)CC)OC(=O)[C@H](C(C)(C)O)N(C)C(=O)[C@H](CC(C)C)NC(=O)[C@H](CCCO)N(C)C1=O [Compound 28, cyclo(L-aIle-L-HOMeNva-L-Leu-L-βHOMeVal-D-Hmp-L-MeVal-L-Phe-L-MePhe-L-Pro)] (cyclo(F[NMeF]P[aIle][X5]L[NMeVal(β-OH)][X1][NMeV])) | 0.78 (≈ 0.698 µM) | 1.56 (≈ 1.4 µM) | 12.5 (≈ 11.2 µM) | 1.56 (≈ 1.4 µM) | 0.78 (≈ 0.698 µM) |  |  |  |  | 
CC[C@@H](C)[C@@H]1NC(=O)[C@@H]2CCCN2C(=O)CN(C)C(=O)[C@H](Cc2ccccc2)NC(=O)[C@H](C(C)C)N(C)C(=O)[C@@H]([C@H](C)CC)OC(=O)[C@H](C(C)(C)O)N(C)C(=O)[C@H](CC(C)C)NC(=O)[C@H](C(C)C)N(C)C1=O [Compound 13] (cyclo(F[Sar]P[aIle][NMeV]L[NMeVal(β-OH)][X1][NMeV])) |  |  |  |  |  | 0.05 (≈ 0.0494 µM) | 0.10 (≈ 0.0989 µM) | 12.5 (≈ 12.4 µM) | 0.78 (≈ 0.771 µM) | 0.10 (≈ 0.0989 µM)
CC[C@@H](C)[C@@H]1NC(=O)[C@@H]2CCCN2C(=O)[C@H](Cc2ccccc2)N(C)C(=O)[C@H](Cc2ccccc2)NC(=O)[C@H](C(C)C)N(C)C(=O)[C@@H]([C@H](C)CC)OC(=O)[C@H](C(C)(C)O)N(C)C(=O)[C@H](CC(C)C)NC(=O)[C@H]([C@H](C)CC)N(C)C1=O [Compound 22, cyclo (L-aIle-L-MeaIle-L-Leu-L-βHOMeVal-D-Hmp-L-MeVal-L-Phe-L-MePhe-L-Pro)] (cyclo(F[NMeF]P[aIle][NMeaIle]L[NMeVal(β-OH)][X1][NMeV])) | 0.20 (≈ 0.179 µM) | 1.56 (≈ 1.4 µM) | 1.56 (≈ 1.4 µM) | 0.78 (≈ 0.699 µM) | 0.10 (≈ 0.0896 µM) |  |  |  |  | 
CC[C@@H](C)[C@H]1OC(=O)[C@H](C(C)(C)O)N(C)C(=O)[C@H](CC(C)C)NC(=O)[C@H](C(C)C)N(C)C(=O)[C@H](CC(C)C)NC(=O)[C@@H]2CCCN2C(=O)[C@H](Cc2ccccc2)N(C)C(=O)[C@H](Cc2ccccc2)NC(=O)[C@H](C(C)C)N(C)C1=O [Compound 6] (HELM PEPTIDE1{F.[meF].P.L.[meV].L.[CN([C@H](C(=O)[*:2])C(C)(C)O)[*:1]].[CC[C@@H](C)[C@@H](O[*:1])C(=O)[*:2]].[meV]}$PEPTIDE1,PEPTIDE1,1:R1-9:R2$$$V2.0) | 0.10 (≈ 0.0908 µM) | 0.78 (≈ 0.708 µM) | 12.5 (≈ 11.3 µM) | 0.78 (≈ 0.708 µM) | 0.025 (≈ 0.0227 µM) |  |  |  |  | 
